Measured values from PubChem BioAssay AID902 (National Center for Advancing Translational Sciences (NCATS), 2007).
Hit rate of the full screen: of about 130,000 compounds, about 1,900 (1.5%) were called active. Inconclusive means that the source gave no clear call. Such entries were picked first, then a sample of the others. The call rests on the fitted dose curve; in most records, active means well fitted cell-killing curve with a large enough effect; inconclusive means small, poorly fitted or top-dose-only effect; inactive means no such curve, though single readings can be large or run the other way. Potencies of inconclusive entries are doubtful fits and often do not repeat.

Assay: qHTS Screen for Compounds that Selectively Target Cancer Cells with p53 Mutations: Cytotoxicity of p53ts Cells at the Nonpermissive Temperature; further: nearly all actives have a fitted effect of over 55% in size
Settings: H1299-p53A138V viability at 39C, ATP luminescence, 24 h; activity change, negative = cell killing: at 46.1 µM (top of the series)
On the % scale 0 is the no-effect control and ±100 the full control effect; potency means the concentration at half of the fitted maximal effect; tags describe the fitted curve by direction and shape.

| Compound | Potency | activity change, negative = cell killing |
| --- | --- | --- |
| CCOC(=O)C1CCC(CN(Cc2cccc(Br)c2)S(=O)(=O)c2ccc(C)cc2)CC1 (stereo not drawn) | inconclusive: 25.1 µM [cytotoxic, partial curve, poor fit] | – |
| CCc1nc2ccccc2n1CCCCOc1ccc(C)cc1 | inconclusive: 15.8 µM [cytotoxic, single point] | – |
| Cc1ccc2c(Sc3ccc(Cl)cc3)c(C(=O)N3CCC(C)CC3)[nH]c2c1 | – | inactive: -19.2% |
| COc1ccc(CNS(=O)(=O)c2cnc(N)nc2)c(OC)c1 | inconclusive: 0.631 µM [cytotoxic, full curve] | – |
| O=C(/C=C/c1ccc(O)cc1)c1cccs1 | – | inconclusive: -90.1% [cytotoxic] |
| Cc1ccc2c(c1)-c1cc(C)nn1C(c1sccc1C)N2 (stereo not drawn) | inconclusive: 31.6 µM [cytotoxic, single point] | – |
| NC(=O)c1c(NC(=O)C2CCCO2)sc2c1CCCC2 (stereo not drawn) | – | inactive: 11.6% |
| CCCC(=O)N1c2ccc(-c3csc(N)n3)cc2CC1C (stereo not drawn) | active: 12.6 µM | – |
| COc1ccc(Cc2nnc(-c3cccc(C)c3)o2)cc1OC | inconclusive: 35.5 µM [cytotoxic, single point] | – |
| Cc1ccc(CNC(=O)CCS(=O)(=O)c2cc(Br)cc3c2N(C(=O)C2CC2)CC3)o1 | inconclusive: 25.1 µM [cytotoxic, single point] | – |
| c1cncc(-c2nc(-c3ccc4c(c3)OCO4)cs2)c1 | inconclusive: 12.6 µM [cytotoxic, partial curve] | – |
| O=C(CSc1nc2ccccc2n1Cc1ccccc1)N1CCN(c2ccc(F)cc2)CC1 | inconclusive: 7.94 µM [cytotoxic, partial curve, poor fit] | – |
| CC(C)(C)C(=O)/C(=C\c1ccc([N+](=O)[O-])cc1)n1cncn1 | inconclusive: 20 µM [cytotoxic, single point] | – |
| CCc1ccc(-c2nc3ccc(Br)cc3c(C(=O)O)c2C)s1 | inconclusive: 15.8 µM [cytotoxic, single point] | – |
| O=C(/C=C/N1CCOCC1)c1coc2ccccc12 | inconclusive: 5.01 µM [cytotoxic, full curve] | – |
| Cc1ccc(NC(=O)N2CCCN(Cc3ccc(F)cc3)C2)cc1C | – | inactive: -29.8% |
| CCOC(=O)Cc1csc(NC(=O)CSc2nnc(-c3ccc(F)cc3)o2)n1 | inconclusive: 7.94 µM [cytotoxic, partial curve] | – |
| COc1ccc(OC)c(NC(=O)CSc2c3c(nc4ccccc24)CCCC3)c1 | inconclusive: 20 µM [cytotoxic, single point] | – |
| CCCCn1c(SCc2ccc(Cl)cc2)nc2c1c(=O)[nH]c(=O)n2C | inconclusive: 12.6 µM [cytotoxic, single point] | – |
| Cc1ccc(OC(=O)c2cc(-c3ccc4c(c3)OCCO4)on2)c(C)c1 | active: 12.6 µM | – |
| Cc1ccc(C(=O)Nc2ccc(Cl)c(-c3nc4ncccc4o3)c2)c(C)c1 | inconclusive: 15.8 µM [cytotoxic, single point] | – |
| Cc1ccccc1OCc1ccc(-c2nc(C#N)c(NCCCN(C)C)o2)o1 | inconclusive: 3.98 µM [cytotoxic, partial curve] | – |

| Compound | Potency | activity change, negative = cell killing |
| --- | --- | --- |
| COc1cccc(-c2nc(-c3ccc(-c4ccccc4)nc3OC)no2)c1 | inconclusive: 20 µM [cytotoxic, single point] | – |
| Cn1nnnc1SCCCNCc1cccc(OCc2ccc(Cl)cc2)c1 | inconclusive: 20 µM [cytotoxic, single point] | – |
| O=C1c2ccc(O)c(O)c2C(=O)c2c(O)ccc(O)c21 | active: 5.01 µM | – |
| COc1ccccc1-c1nc(-c2ccc(Br)o2)no1 | inconclusive: 10 µM [cytotoxic, partial curve] | – |
| Cc1cc(C)cc(NC(=O)c2cc(S(=O)(=O)N3CCCCCC3)cn2C)c1 | – | inactive: -13.7% |
| COc1ccc(-c2cc(=O)c3cc(OC)ccc3o2)cc1 | inconclusive: 1.26 µM [cytotoxic, full curve] | – |
| Cc1ccc(C)c(NC(=O)C2CCCN(S(=O)(=O)c3ccc4[nH]c(=O)ccc4c3)C2)c1 (stereo not drawn) | inconclusive: 20 µM [cytotoxic, partial curve] | – |
| Cc1ccc(-c2nc(CS(=O)CC(=O)N3CCN(c4ccccc4)CC3)c(C)o2)cc1 (stereo not drawn) | inconclusive: 3.98 µM [cytotoxic, partial curve] | – |
| Cc1ccc(CSCC(=O)N2CCN(c3cc(Cl)ccc3C)CC2)cc1 | inconclusive: 20 µM [cytotoxic, partial curve, poor fit] | – |
| O=C(Nc1ccc(SC(F)F)cc1)c1cc(-c2ccc3c(c2)OCCO3)on1 | inconclusive: 0.158 µM [cytotoxic, full curve] | – |
| Cc1cccc(C)c1Nc1c(-c2ccc(Cl)s2)nc2ncccn12 | inconclusive: 31.6 µM [cytotoxic, single point] | – |
| COc1cccc(-c2cc(=O)c3ccccc3o2)c1N | active: 5.01 µM | – |
| CCC(=O)N1CCc2cc(S(=O)(=O)NCCC(=O)Nc3ccc(OC)c(Cl)c3)ccc21 | – | inactive: 5.94% |
| COc1ccc(-c2nc(-c3ccccc3)c(-c3ccccc3)[nH]2)cc1Br | inconclusive: 7.94 µM [cytotoxic, partial curve] | – |
| Oc1c(I)cc(Cl)c2cccnc12 | active: 7.94 µM | – |
| COC(=O)CNC(=O)C(Cc1ccccc1)NS(=O)(=O)c1ccc2c(c1)c(=O)n(C)c(=O)n2C (stereo not drawn) | inconclusive: 12.6 µM [cytotoxic, partial curve] | – |
| Cc1ccc(NC(=O)Cn2c(=O)n(CCCCCC(=O)NCc3ccc(F)cc3)c(=O)c3sccc32)c(C)c1 | inconclusive: 0.794 µM [cytotoxic, single point] | – |
| CCOc1ccc(CCNC(=O)Cn2nnc(-c3ccc(OC)c(OC)c3)n2)cc1OCC | inconclusive: 31.6 µM [cytotoxic, single point] | – |
| CCOc1cc(CNCCSc2nnnn2-c2ccccc2)cc(Cl)c1OC | inconclusive: 35.5 µM [cytotoxic, single point] | – |
| O=C(O)CCc1nc2ccccc2n(CCc2ccccc2)c1=O | inconclusive: 20 µM [cytotoxic, single point] | – |
| CC(CNC(=O)C1CCN(Cc2cc3ccccc3n2Cc2ccccc2)CC1)c1ccccc1 (stereo not drawn) | inconclusive: 10 µM [cytotoxic, partial curve, poor fit] | – |
